# About 2,200 (0.71%) of roughly 310,000 compounds showed an effect of 50% or more. The effect is printed as a negative number. The list shows a part of the results.
# Target: human ether-à-go-go-related gene (hERG) potassium channel (human, UniProt Q12809)
# Test: primary screen, population patch clamp on CHO cells stably expressing hERG
# human ether-à-go-go-related gene (hERG) potassium channel, sequence (Q12809 whole entry, looked up): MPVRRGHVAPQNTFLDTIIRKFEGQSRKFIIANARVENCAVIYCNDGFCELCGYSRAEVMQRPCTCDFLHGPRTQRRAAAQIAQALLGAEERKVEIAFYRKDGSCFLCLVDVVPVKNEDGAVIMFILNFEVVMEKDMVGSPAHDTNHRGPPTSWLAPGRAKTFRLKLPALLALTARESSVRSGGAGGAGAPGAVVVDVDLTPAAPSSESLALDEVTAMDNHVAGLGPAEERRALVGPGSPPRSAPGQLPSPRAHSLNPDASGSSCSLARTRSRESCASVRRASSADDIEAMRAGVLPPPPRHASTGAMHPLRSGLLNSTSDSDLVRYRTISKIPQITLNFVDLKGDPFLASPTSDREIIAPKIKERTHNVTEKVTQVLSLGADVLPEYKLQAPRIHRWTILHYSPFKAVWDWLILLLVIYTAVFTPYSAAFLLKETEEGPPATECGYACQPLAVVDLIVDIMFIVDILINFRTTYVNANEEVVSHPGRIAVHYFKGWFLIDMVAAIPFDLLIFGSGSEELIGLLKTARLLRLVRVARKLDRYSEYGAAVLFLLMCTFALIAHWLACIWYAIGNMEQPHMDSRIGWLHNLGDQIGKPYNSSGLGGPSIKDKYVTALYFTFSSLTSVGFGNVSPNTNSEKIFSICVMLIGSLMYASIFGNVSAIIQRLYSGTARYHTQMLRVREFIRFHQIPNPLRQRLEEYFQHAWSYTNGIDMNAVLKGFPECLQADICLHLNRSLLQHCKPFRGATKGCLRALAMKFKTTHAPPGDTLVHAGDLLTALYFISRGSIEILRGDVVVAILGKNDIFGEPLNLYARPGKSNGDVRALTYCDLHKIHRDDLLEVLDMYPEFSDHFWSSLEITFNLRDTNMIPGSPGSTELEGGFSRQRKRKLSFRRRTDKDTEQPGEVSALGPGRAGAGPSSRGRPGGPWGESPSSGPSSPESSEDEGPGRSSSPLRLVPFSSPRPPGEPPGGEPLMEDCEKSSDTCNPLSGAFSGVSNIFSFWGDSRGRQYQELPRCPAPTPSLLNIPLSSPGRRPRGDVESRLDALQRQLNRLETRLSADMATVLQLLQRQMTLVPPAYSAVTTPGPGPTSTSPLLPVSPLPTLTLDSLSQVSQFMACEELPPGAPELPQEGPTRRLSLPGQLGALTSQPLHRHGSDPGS
row,Compound,"hERG current change (%, negative = inhibition) at 1uM [%]"
1,CC(C)c1ccc(/C=N/NC(=O)CN(c2cccc(Cl)c2Cl)S(C)(=O)=O)cc1,18.2
2,COc1cccc(C(=O)Nc2ccc3[nH]ncc3c2)c1,-26.3
3,COc1cc(C(=O)NCC(=O)N/N=C(\C)Cc2ccccc2)cc(OC)c1OC,17.1
4,COc1cccc(-c2nn3c(-c4ccco4)nnc3s2)c1,1.58
5,Cc1occc1C(=O)NNC(=O)Nc1ccc([N+](=O)[O-])cc1,-7.42
6,Cc1ncc([N+](=O)[O-])n1CC(=O)Nc1ccc(F)cc1F,16.3
7,COc1ccc(C2=NN3C(C2)c2ccccc2OC3c2cccs2)cc1 (centres unmarked),5.6
8,Cc1ccc(NC(=O)c2c(F)cccc2Cl)cc1S(=O)(=O)N1CCOCC1,16.2
9,Cc1ccc(N(C(=O)c2ccc3c(c2)OCO3)C2C=CS(=O)(=O)C2)cc1C (centres unmarked),8.37
10,Cc1coc2c(C)c3oc(=O)c(CCC(=O)N(C)CC(=O)O)c(C)c3cc12,15.5
11,CCC(C)N1C(=O)C2C(C(=O)Nc3cccc(OC)c3)C3C=CC2(O3)C1C(=O)NC1CCCCC1C (centres unmarked),0.648
12,O=C(CSCc1ccc(Cl)cc1)NN=C1CCCCCC1,5.97
13,CCOC(=O)c1c(S(=O)(=O)NCc2ccc(C)o2)c(C)n(C)c1C,-0.736
14,N/C(=N\OC(=O)CSc1ccccc1)c1ccc([N+](=O)[O-])cc1,3.22
15,Cc1cc(Br)ccc1NC(=O)CN1C(=O)C2CC=CCC2C1=O (centres unmarked),2.16
16,C[N+](C)(CC#N)C/C=C\c1ccccc1.[Cl-],7.24
17,O=C(O)C1Cc2ccccc2CN1C(=O)CSc1nnc2ccccn12 (centres unmarked),8.7
18,O=S(=O)(c1ccccc1)N1CC=C(c2ccccc2)CC1,3.79
19,Cc1ccc(NC(=O)C2(c3ccccc3)CCOCC2)c([N+](=O)[O-])c1,4.67
20,COc1cc(C(=O)NCCc2ccc(F)cc2)ccc1OCC(=O)N1CCOCC1,7.97
21,CCCCC(C(=O)NCCC(C)C)N(CCCN1CCOCC1)C(=O)c1snc(C(N)=O)c1N (centres unmarked),-17.5
22,CC(C)c1nnc(SCC(=O)NC(C)(C)C)n1C,11.6

row,Compound,"hERG current change (%, negative = inhibition) at 1uM [%]"
1,Cn1c(SCC(=O)c2c(N)n(C)c(=O)n(C)c2=O)nnc1-c1ccccc1F,12.8
2,CCCC(=O)N1CCN(c2ccc([N+](=O)[O-])c(NC(C)c3ccccc3)c2)CC1 (centres unmarked),3.93
3,O=C1c2ccccc2-c2c1cccc2C(=O)N1CCCCCC1,7.59
4,Cc1nnc2n(c1=O)C(CS(=O)(=O)c1ccccc1)CS2 (centres unmarked),5.67
5,Cc1ccc[n+](CC(=O)c2ccc(Cl)cc2)c1.[Cl-],12.3
6,CCOc1ccc(N2C(=O)c3ccc(C(=O)OCC(=O)N(CC)C4CCS(=O)(=O)C4)cc3C2=O)cc1 (centres unmarked),-2.6
7,CCOc1ccccc1C(=O)Nc1cc(OC)ccc1OC,-8.18
8,CC(C)Cn1c(-c2cccnc2)nc2c1c(=O)[nH]c(=O)n2CC(C)C,-0.85
9,CCc1ccc2[nH]c(=O)c(CN(CCCN3CCOCC3)C(=O)Nc3ccc(F)cc3)cc2c1,-48.2
10,Cc1ccc2scc(CN3CCCC3)c2c1.Cl,8.55
11,Cc1ccc(CSc2nc(N)cc(N)n2)cc1,17.2
12,Cc1ccc2nc(C3CCN(CC(=O)N4CCCCCC4)CC3)[nH]c2c1,9.46
13,Cc1ccccc1-c1nnc(SCC(=O)NCc2ccc3c(c2)OCO3)n1C,6.31
14,CCOC(=O)Cc1csc(NC(=S)NC(=O)c2ccc(Cl)cc2)n1,18.5
15,CCOC(=O)CCNC(=O)Nc1cc2nc(C)n(Cc3cccc(Cl)c3)c2nc1C,2.57
16,CC(C(=O)NC1CCCc2ccccc21)N1CCN(Cc2ccc3c(c2)OCO3)CC1 (centres unmarked),-11.9
17,CC/C(=N/N=C(\CC)c1ccccc1)c1ccccc1,2.54
18,Cc1nc(NC(=O)CSc2nnc(Cn3nnc4ccccc43)n2C)sc1C,7.16
19,O=C(CC1C(=O)NCCN1Cc1ccc(F)cc1)NCCCn1cccn1 (centres unmarked),-7.68
20,Cc1ccc(-n2c(Cc3cccs3)nnc2SCC(=O)OC(C)C)cc1,-10.3
21,O=C(CNC(=O)C1CCCCC1)OCC(=O)c1ccc(Cl)s1,4.86
22,Cc1cc(Br)c(OCc2ccc(C(=O)N/N=C/c3ccc[nH]3)cc2)c(Br)c1,17.2

row,Compound,"hERG current change (%, negative = inhibition) at 1uM [%]"
1,O=C(CCN1CCCCC1)NNC(=O)C12CC3CC(CC(C3)C1)C2,18
2,CC1=C/C(=C(\c2cc(C)c(O)c(Br)c2)c2ccccc2S(=O)(=O)O)C=C(Br)C1=O,15.9
3,COc1ccc(C(=O)N/N=C/c2ccc(OC)c(COc3ccc(F)cc3)c2)cc1,1.17
4,Cn1c(N)c(C(=O)CNC2CCCCC2)c(=O)n(C)c1=O,11.6
5,CCCCC(=O)Nc1ccc2c(c1)nc1n2CCOC1,15.9
6,CC(C)(C)NC(=O)CN1CCCN(C(=O)c2cccc(S(=O)(=O)N3CCc4ccccc43)c2)CC1,9.17
7,CCOC(=O)N1CCC(NC(=O)c2ccc3c(=O)n4c(nc3c2)CCCC4)CC1,17.1
8,Cn1c(=O)[nH]c(=O)c2[nH]c(NCCCN3CCOCC3)nc21,19.2
9,Cc1ccccc1-c1noc(-c2ccccc2C(=O)O)n1,-5.91
10,CCOC(=O)CC1=CSC2=NS(=O)(=O)CCN12,2.8
11,COc1cc(NC(=O)Cn2c(=O)n(CC3CCCO3)c(=O)c3ccccc32)cc(OC)c1 (centres unmarked),8.85
12,CCC/C(=N\NC(=O)CCC(=O)NCc1ccccc1)c1ccccc1,16.8
13,CCOC(=O)CNC(=O)Nc1cccc(Cl)c1C,13.4
14,COc1ccccc1OCC(=O)c1[nH]c(C)c(C(C)=O)c1C,0.653
15,COc1ccc(-c2nc3c(c(=O)c4ccccc4n3C)c(=O)n2Cc2ccccc2)cc1,13.5
16,CC1=CC(=O)C=C(C)C1=NOC(=O)c1cccc([N+](=O)[O-])c1,5.05
17,O=C(CN(C(=O)c1csnn1)c1ccc2c(c1)OCCO2)NCc1ccc(F)cc1,-1.13
18,COc1ccc(Cc2nnc(SCC(=O)NC(C)c3ccccc3)o2)cc1 (centres unmarked),-1.25
19,CC(=O)c1c(C)[nH]c(C(=O)Nc2cc(S(=O)(=O)N(C)C)ccc2C)c1C,14
20,CCOc1ccc(OCc2ccc(C(=O)N3CCc4ccccc4C3)o2)cc1,1.11
21,S=c1[nH]nc2c3c4c(sc3ncn12)CCCC4,17.3
22,CCc1nn(C(CC)C(=O)NCCc2ccc(OC)cc2OC)c(=O)c2cc3occc3n12 (centres unmarked),-3.52

row,Compound,"hERG current change (%, negative = inhibition) at 1uM [%]"
1,CC(C(=O)[O-])c1ccc(CC2CCCC2=O)cc1.[Na+] (centres unmarked),18.6
2,FC(F)C(F)(F)c1cc(-c2ccc(Cl)cc2)n[nH]1,23.1
3,O=C(CON=C1c2ccccc2-c2ccccc21)NC12CC3CC(CC(C3)C1)C2,-5.98
4,CCOC(=O)C1=C(C)NC(C)=C(C(=O)OCC)C1c1sccc1C,10.8
5,CCOC(=O)CN(C(=O)COc1ccc2c(C)cc(=O)oc2c1)c1ccc(OCC)cc1,4.72
6,COc1ccc(/C=C2\CCCc3c2nc2ccccc2c3C(=O)O)cc1OC,8.75
7,O=C(Nc1ccc2c(c1)OCCO2)C1CCCN(S(=O)(=O)Cc2ccccc2)C1 (centres unmarked),2.91
8,COc1ccc2[nH]c3c(c2c1)CCn1c-3nc2ccccc2c1=O,-2.24
9,COc1ccc(N(C(=O)c2cccnc2)S(=O)(=O)c2ccc3c4c(cccc24)C(=O)N3C)cc1,8.72
10,CCN(c1ccccc1)S(=O)(=O)c1ccc(Oc2ccc(C(C)=O)cc2OC)nc1,26
11,Cc1ccc2nc(SCC(=O)Nc3ccc4sc(C)nc4c3)c(C#N)cc2c1,12.1
12,Cc1ccccc1Cn1cc(NC(=O)c2cc(-c3cccs3)on2)cn1,-11.3
13,COc1cc(OC)c(OC)cc1/C=C1\Oc2cc(OCC(=O)N3Cc4ccccc4C[C@H]3C(=O)O)ccc2C1=O,1.72
14,Nc1nnc(CC(=O)N/N=C\c2cc([N+](=O)[O-])ccc2O)s1,15.4
15,Cc1ccc(C(=O)CN2C(=O)C(=O)N(Cc3ccccc3)C2=O)cc1,7.02
16,O=C(Cn1ncn2c(cc3cc(F)ccc32)c1=O)N1CCC2(CC1)OCCO2,8
17,O=C(COS(=O)c1ccccc1)Nc1cc(Cl)ccc1N1CCOCC1 (centres unmarked),4.99
18,COc1cccc(Oc2ccc(S(=O)(=O)N3CCCC3)cc2[N+](=O)[O-])c1,1.74
19,O=C(N1CCCCC1)N1CCN(S(=O)(=O)c2ccc(Cl)cc2)CC1,-4.28
20,O=C(CN1C(=O)NC2(CCCCC2)C1=O)N1CCN(S(=O)(=O)c2ccc(Cl)s2)CC1,19.2
